The supplement of paper PMC12067093, “Discovery and optimisation of a covalent ligand for TRIM25 and its application to targeted protein ubiquitination” (Chemical Science, 2025)
About 21,000 targets were measured; listed, in parts, are those with the largest changes and a random draw of the rest.

These targets were tested with Cc1cc(ccc1-c1ccccc1)C(=O)N1CCCN(CC1)C(=O)CCl [compound 10] (assay: probe-labelled cysteine peptide fold change vs DMSO (competition) (log2 fold change); higher = less target engagement (more negative = stronger competition)). Conditions: 10 µM; THP-1; incubation time: 4 h.
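Note: competitive profiling in live THP-1 cells: cysteine peptides tagged with an iodoacetamide desthiobiotin (IA-DTB) probe, intensity after compound treatment relative to DMSO-treated cells.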

Chain of UniProt P43487 (P43487 whole entry, looked up): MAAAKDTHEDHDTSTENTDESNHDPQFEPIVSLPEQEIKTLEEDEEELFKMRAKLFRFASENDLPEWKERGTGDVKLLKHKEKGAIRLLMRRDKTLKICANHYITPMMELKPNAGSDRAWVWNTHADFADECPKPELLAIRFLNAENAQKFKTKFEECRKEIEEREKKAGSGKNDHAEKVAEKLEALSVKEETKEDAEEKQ
Chain of UniProt Q15269 (Q15269 whole entry, looked up): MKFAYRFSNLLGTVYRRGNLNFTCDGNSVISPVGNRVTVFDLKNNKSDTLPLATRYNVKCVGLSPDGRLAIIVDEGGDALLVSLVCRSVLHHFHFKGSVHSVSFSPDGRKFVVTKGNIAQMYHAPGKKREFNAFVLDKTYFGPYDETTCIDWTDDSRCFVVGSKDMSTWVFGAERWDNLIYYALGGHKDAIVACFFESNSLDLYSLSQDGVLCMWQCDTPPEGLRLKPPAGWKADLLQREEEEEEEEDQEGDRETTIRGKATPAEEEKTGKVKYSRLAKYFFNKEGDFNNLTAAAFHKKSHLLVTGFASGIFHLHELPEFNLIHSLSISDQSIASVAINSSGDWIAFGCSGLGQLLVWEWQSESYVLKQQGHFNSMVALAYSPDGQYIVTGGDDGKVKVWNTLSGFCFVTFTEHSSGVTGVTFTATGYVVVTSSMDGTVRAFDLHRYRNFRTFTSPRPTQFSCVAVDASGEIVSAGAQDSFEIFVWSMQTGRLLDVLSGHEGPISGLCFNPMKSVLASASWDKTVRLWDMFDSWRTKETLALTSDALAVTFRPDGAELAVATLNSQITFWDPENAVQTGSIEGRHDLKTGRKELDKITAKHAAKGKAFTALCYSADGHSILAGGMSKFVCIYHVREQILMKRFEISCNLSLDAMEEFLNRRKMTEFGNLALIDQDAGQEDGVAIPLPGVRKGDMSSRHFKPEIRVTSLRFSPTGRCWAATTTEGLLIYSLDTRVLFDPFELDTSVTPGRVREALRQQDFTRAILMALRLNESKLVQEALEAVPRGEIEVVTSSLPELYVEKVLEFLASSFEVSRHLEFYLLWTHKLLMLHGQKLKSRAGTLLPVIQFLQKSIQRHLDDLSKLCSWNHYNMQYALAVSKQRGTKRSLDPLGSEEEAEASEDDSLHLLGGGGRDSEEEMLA
Chain of UniProt Q9BRX8 (Q9BRX8 whole entry, looked up): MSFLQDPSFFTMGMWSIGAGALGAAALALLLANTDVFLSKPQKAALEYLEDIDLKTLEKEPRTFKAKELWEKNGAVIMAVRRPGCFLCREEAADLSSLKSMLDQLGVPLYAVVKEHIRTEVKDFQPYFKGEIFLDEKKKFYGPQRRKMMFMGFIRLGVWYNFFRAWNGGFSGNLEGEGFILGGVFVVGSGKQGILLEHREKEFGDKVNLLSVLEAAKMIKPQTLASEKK
Chain of UniProt Q6WKZ4 (Q6WKZ4 whole entry, looked up): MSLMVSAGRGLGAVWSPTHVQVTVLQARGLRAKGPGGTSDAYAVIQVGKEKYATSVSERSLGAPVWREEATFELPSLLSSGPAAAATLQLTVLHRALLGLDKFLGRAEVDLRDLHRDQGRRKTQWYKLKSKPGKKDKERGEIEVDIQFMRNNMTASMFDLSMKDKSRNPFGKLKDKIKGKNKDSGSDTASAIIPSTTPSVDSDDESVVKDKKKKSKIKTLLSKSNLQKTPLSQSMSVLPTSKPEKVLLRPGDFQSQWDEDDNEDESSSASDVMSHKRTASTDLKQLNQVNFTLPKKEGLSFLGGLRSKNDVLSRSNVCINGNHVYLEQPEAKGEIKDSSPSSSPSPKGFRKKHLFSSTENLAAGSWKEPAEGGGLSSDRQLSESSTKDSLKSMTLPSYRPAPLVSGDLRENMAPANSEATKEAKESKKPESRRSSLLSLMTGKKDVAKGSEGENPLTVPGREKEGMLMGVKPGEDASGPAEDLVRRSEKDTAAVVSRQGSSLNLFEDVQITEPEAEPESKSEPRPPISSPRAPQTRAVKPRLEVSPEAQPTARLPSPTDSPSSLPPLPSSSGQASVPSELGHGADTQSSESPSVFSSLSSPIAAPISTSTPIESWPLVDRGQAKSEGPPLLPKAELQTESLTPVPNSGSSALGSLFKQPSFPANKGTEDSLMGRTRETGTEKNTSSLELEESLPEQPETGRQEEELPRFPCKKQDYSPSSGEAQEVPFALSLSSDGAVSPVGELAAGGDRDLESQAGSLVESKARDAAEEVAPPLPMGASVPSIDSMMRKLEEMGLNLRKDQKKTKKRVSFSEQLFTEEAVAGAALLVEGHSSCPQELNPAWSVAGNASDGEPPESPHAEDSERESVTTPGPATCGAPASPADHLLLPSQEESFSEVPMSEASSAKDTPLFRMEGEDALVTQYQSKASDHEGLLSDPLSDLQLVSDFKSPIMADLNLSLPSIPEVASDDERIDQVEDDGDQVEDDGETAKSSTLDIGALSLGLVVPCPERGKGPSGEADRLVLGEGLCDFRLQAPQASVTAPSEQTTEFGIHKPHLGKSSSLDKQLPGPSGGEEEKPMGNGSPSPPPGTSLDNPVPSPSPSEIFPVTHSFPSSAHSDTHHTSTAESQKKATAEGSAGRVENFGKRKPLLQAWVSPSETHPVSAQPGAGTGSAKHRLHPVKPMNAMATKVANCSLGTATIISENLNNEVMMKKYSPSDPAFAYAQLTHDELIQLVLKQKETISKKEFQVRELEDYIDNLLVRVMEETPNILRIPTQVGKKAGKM
Chain of UniProt O43586 (O43586 whole entry, looked up): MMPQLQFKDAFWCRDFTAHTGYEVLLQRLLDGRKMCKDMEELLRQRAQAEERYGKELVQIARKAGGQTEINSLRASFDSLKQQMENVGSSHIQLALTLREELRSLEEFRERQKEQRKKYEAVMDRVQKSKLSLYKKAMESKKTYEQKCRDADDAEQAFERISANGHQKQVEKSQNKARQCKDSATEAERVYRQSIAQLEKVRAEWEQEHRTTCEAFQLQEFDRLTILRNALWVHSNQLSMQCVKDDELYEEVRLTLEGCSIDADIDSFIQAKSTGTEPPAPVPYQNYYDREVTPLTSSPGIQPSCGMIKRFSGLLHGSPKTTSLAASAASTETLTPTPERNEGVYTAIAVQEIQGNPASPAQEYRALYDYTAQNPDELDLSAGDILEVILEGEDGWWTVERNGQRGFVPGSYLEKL
Chain of UniProt P25789 (P25789 whole entry, looked up): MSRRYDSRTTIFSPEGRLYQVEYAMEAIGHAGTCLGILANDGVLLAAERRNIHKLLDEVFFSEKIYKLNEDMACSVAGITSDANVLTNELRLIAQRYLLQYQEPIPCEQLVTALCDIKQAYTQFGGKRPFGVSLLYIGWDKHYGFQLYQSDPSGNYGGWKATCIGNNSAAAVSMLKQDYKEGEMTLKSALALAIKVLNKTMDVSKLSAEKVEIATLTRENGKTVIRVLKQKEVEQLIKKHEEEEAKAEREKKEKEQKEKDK
Chain of UniProt P23469 (P23469 whole entry, looked up): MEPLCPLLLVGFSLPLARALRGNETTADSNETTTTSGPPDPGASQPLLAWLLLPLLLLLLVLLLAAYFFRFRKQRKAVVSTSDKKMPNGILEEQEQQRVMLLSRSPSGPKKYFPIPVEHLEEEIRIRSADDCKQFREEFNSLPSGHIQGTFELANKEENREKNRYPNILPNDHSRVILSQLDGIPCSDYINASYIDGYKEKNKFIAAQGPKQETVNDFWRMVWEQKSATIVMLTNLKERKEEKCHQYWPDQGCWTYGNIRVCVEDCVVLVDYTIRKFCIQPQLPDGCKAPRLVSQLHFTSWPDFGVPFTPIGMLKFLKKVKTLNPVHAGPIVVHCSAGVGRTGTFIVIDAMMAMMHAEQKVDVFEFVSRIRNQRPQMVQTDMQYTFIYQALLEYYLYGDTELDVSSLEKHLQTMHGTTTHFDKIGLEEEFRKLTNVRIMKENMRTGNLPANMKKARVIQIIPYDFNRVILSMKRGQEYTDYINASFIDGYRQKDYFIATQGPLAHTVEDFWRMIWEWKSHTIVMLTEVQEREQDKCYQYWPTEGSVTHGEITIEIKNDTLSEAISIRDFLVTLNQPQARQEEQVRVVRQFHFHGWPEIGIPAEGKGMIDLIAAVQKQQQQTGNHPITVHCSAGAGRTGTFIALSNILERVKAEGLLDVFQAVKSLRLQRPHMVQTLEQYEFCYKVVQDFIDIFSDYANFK
Chain of UniProt P28062 (P28062 whole entry, looked up): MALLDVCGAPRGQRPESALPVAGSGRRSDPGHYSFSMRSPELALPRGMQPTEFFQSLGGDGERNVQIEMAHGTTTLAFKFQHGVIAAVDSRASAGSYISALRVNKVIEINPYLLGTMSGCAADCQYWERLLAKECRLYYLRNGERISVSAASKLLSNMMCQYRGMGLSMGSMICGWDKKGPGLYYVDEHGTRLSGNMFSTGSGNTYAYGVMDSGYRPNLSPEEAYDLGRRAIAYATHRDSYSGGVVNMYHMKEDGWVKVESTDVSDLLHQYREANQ
Chain of UniProt Q15185 (Q15185 whole entry, looked up): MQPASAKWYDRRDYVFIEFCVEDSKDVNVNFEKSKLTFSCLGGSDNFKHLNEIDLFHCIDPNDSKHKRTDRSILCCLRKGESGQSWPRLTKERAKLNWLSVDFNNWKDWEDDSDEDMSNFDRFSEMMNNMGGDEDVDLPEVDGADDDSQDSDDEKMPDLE
Chain of UniProt P28065 (P28065 whole entry): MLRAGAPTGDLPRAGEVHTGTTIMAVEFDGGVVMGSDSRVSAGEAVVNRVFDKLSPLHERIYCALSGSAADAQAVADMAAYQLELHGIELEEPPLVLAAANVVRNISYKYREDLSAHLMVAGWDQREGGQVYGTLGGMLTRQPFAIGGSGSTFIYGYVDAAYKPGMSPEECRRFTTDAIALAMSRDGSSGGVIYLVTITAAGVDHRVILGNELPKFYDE
Chain of UniProt Q6IQ22 (Q6IQ22 whole entry): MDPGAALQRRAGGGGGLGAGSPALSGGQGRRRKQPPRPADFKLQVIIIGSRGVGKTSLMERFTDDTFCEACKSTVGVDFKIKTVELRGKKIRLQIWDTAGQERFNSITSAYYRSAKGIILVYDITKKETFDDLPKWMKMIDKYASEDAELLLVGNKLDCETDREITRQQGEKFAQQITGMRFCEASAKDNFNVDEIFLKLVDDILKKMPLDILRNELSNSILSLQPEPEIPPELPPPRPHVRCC

In order of rising “probe-labelled cysteine peptide fold change” value:
1. PRXL2A_Q9BRX8_85_RPGCFLCR (UniProt Q9BRX8)  -2.55
2. PRKDC_P78527_123_CKIPALDLLIK (UniProt P78527)  -1.08
3. PTPRE_P23469_186_VILSQLDGIPCSDYINASYIDGYK (UniProt P23469)  -0.697
4. RHBDF2_Q6PJF5_181_DLELPSQEAPSFQGTESPKPCK (UniProt Q6PJF5)  -0.549
5. PSMB8_P28062_124_VIEINPYLLGTMSGCAADCQYWER (UniProt P28062)  -0.321
6. RFTN1_Q14699_211_PGTGDVCSAPAGR (UniProt Q14699)  -0.267
7. RASGRP2_Q7LDG7_186_ILFQDYHSFVTHGCTVDNPVLER (UniProt Q7LDG7)  -0.233
8. RAB11FIP1_Q6WKZ4_1192_VANCSLGTATIISENLNNEVMMK (UniProt Q6WKZ4)  -0.223
9. PSTPIP1_O43586_213_TTCEAFQLQEFDRLTILR (UniProt O43586)  -0.138
10. PRKDC_P78527_1791_GSCVTQVGLLESVYEMFRK (UniProt P78527)  -0.126
11. PREX2_Q70Z35_341_WFVCMAK (UniProt Q70Z35)  -0.115
12. RANBP1_P43487_132_AWVWNTHADFADECPKPELLAIR (UniProt P43487)  0.00233
13. PRMT9_Q6P2P2_175_AVCLGSK (UniProt Q6P2P2)  0.0219
14. PTGES3_Q15185_40_LTFSCLGGSDNFK (UniProt Q15185)  0.0441
15. RAB12_Q6IQ22_159_LDCETDREITR (UniProt Q6IQ22)  0.0479
16. PSMD2_Q13200_779_GTLTLCPYHSDR (UniProt Q13200)  0.0817
17. PWP2_Q15269_158_CFVVGSK (UniProt Q15269)  0.0935
18. PSMB9_P28065_171_QPFAIGGSGSTFIYGYVDAAYKPGMSPEECRR (UniProt P28065)  0.113
19. RFC1_P35251_822_QVLHNLSMWCAR (UniProt P35251)  0.12
20. PSMC5_P62195_363_GVCTEAGMYALR (UniProt P62195)  0.208
21. PSMA4_P25789_115_YLLQYQEPIPCEQLVTALCDIK (UniProt P25789)  0.243

Same assay, conditions: 50 µM; THP-1; incubation time: 4 h

In order of rising “probe-labelled cysteine peptide fold change” value:
1. PRXL2A_Q9BRX8_85_RPGCFLCR (UniProt Q9BRX8)  -2.74
2. RHBDF2_Q6PJF5_181_DLELPSQEAPSFQGTESPKPCK (UniProt Q6PJF5)  -1.52
3. PSMB8_P28062_124_VIEINPYLLGTMSGCAADCQYWER (UniProt P28062)  -1.14
4. RASGRP2_Q7LDG7_186_ILFQDYHSFVTHGCTVDNPVLER (UniProt Q7LDG7)  -0.579
5. PRKDC_P78527_1791_GSCVTQVGLLESVYEMFRK (UniProt P78527)  -0.358
6. RAB11FIP1_Q6WKZ4_1192_VANCSLGTATIISENLNNEVMMK (UniProt Q6WKZ4)  -0.343
7. PSTPIP1_O43586_213_TTCEAFQLQEFDRLTILR (UniProt O43586)  -0.28
8. RFTN1_Q14699_211_PGTGDVCSAPAGR (UniProt Q14699)  -0.25
9. RANBP1_P43487_132_AWVWNTHADFADECPKPELLAIR (UniProt P43487)  -0.0881
10. PSMD2_Q13200_779_GTLTLCPYHSDR (UniProt Q13200)  0.00322
11. PRKDC_P78527_123_CKIPALDLLIK (UniProt P78527)  0.0331
12. PRMT9_Q6P2P2_175_AVCLGSK (UniProt Q6P2P2)  0.0347
13. PTGES3_Q15185_40_LTFSCLGGSDNFK (UniProt Q15185)  0.037
14. PWP2_Q15269_158_CFVVGSK (UniProt Q15269)  0.05
15. PSMC5_P62195_363_GVCTEAGMYALR (UniProt P62195)  0.0769
16. PSMB9_P28065_171_QPFAIGGSGSTFIYGYVDAAYKPGMSPEECRR (UniProt P28065)  0.12
17. PREX2_Q70Z35_341_WFVCMAK (UniProt Q70Z35)  0.176
18. PTPRE_P23469_186_VILSQLDGIPCSDYINASYIDGYK (UniProt P23469)  0.176
19. RAB12_Q6IQ22_159_LDCETDREITR (UniProt Q6IQ22)  0.266
20. RFC1_P35251_822_QVLHNLSMWCAR (UniProt P35251)  0.32
21. PSMA4_P25789_115_YLLQYQEPIPCEQLVTALCDIK (UniProt P25789)  0.398
